The list shows a part of the results.
Key:
HSkMC = human skeletal muscle cells; assay: cytotoxicity call (relative viability < 0.9); details: 10 µM
HepG2 = assay: cytotoxicity call (relative viability < 0.9); details: 10 µM
S. aureus RN4220 = assay: growth inhibition call (relative growth <= 0.2); details: 50 µM

SMILES | cytotoxicity call (HSkMC) | cytotoxicity call (HepG2) | growth inhibition call (S. aureus RN4220)
C[C@@H]1CCCCO[C@H](CN(C)S(=O)(=O)c2cccs2)[C@@H](C)CN([C@@H](C)CO)C(=O)c2cc(NC(=O)Nc3ccc(C(F)(F)F)cc3)ccc2O1 | active | active | inactive
CN(C)C(=O)c1cccc(-c2ccc3n(c2=O)C[C@H]2[C@H](CO)[C@@H](C(=O)NCC4CC4)N[C@@H]32)c1 | inactive | inactive | inactive
COc1ccc(C#Cc2cnc3c(c2)C(=O)N([C@H](C)CO)C[C@H](C)[C@H](CN(C)C(=O)Nc2c(C)noc2C)O3)cc1OC | inactive | inactive | inactive
COc1ccc([C@H]2CC=CC[C@H](C)Oc3ccccc3C(=O)N(C)[C@H](Cc3ccccc3)C(=O)N2)c(OC)c1 | inactive | inactive | inactive
C[C@@H]1CN([C@H](C)CO)C(=O)Cc2cc(NC(=O)Cn3cnnn3)ccc2O[C@H]1CN(C)Cc1ccc(Cl)c(Cl)c1 | inactive | inactive | inactive
C/C(=N\N)c1nnn(-c2nonc2N)c1C | inactive | inactive | inactive
C[C@H](O)[C@H](O)[C@@H](O)[C@@H](O)/C=N/NC(=O)CCCCC(=O)NO | inactive | inactive | inactive
COc1ccc(CN(C)C[C@@H]2OCCCC[C@@H](C)Oc3ccc(NC(=O)Nc4ccc5c(c4)OCO5)cc3C(=O)N([C@H](C)CO)C[C@@H]2C)cc1 | inactive | inactive | inactive

— the antibiotic and cytotoxicity screens of Wong et al. (2023)
